Reference: paper PMC9640623, “SAMHD1 deacetylation by SIRT1 promotes DNA end resection by facilitating DNA binding at double-strand breaks” (Nature Communications, 2021)
Read-outs that look alike come from different tables or passages of the source. No constants are given. Whether binding was seen depends on the method and setting. Binding seen in cells or lysates may run through a third protein. Some results given as binding are weak or reduced against the parent protein; the word gives no strength.

Chains of the proteins cited; added tags and fusions are not shown. Lines headed by an entry give the natural chain unless they say otherwise; changes in a name come on top.
UniProt Q96EB6: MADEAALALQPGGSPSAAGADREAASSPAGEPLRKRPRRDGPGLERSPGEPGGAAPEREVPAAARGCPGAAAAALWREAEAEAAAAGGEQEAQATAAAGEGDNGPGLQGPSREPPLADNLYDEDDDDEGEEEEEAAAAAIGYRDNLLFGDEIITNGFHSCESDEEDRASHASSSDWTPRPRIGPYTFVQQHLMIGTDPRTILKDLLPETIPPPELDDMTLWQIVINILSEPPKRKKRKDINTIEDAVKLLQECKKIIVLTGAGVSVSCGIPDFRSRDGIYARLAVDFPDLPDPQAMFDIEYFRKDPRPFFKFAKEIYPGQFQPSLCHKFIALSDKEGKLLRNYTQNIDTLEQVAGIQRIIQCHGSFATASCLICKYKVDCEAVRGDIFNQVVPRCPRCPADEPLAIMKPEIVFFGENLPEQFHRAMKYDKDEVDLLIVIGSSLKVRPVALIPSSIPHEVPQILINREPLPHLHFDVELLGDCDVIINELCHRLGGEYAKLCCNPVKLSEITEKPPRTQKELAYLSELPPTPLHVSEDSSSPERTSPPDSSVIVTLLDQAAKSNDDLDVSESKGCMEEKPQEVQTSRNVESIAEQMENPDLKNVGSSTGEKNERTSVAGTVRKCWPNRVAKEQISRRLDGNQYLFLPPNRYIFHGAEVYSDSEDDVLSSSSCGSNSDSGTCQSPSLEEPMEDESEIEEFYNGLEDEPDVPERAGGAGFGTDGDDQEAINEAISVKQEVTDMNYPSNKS
UniProt Q9Y3Z3: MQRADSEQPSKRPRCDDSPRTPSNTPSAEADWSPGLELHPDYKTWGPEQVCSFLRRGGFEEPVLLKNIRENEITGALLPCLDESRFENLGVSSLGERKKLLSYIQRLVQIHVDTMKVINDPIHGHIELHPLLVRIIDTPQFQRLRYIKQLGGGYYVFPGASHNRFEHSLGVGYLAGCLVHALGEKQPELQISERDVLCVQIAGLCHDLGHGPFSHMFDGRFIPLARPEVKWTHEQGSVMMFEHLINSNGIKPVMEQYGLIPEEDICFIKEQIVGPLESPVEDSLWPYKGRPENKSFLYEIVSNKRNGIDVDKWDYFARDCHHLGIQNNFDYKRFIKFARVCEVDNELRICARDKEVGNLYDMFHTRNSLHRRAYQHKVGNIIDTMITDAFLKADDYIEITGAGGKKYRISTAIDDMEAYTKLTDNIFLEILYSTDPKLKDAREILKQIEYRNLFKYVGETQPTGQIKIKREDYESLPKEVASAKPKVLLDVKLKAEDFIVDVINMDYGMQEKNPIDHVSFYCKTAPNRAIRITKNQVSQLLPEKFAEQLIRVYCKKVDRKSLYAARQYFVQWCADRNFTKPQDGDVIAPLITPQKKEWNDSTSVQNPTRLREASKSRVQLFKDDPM
UniProt O60934: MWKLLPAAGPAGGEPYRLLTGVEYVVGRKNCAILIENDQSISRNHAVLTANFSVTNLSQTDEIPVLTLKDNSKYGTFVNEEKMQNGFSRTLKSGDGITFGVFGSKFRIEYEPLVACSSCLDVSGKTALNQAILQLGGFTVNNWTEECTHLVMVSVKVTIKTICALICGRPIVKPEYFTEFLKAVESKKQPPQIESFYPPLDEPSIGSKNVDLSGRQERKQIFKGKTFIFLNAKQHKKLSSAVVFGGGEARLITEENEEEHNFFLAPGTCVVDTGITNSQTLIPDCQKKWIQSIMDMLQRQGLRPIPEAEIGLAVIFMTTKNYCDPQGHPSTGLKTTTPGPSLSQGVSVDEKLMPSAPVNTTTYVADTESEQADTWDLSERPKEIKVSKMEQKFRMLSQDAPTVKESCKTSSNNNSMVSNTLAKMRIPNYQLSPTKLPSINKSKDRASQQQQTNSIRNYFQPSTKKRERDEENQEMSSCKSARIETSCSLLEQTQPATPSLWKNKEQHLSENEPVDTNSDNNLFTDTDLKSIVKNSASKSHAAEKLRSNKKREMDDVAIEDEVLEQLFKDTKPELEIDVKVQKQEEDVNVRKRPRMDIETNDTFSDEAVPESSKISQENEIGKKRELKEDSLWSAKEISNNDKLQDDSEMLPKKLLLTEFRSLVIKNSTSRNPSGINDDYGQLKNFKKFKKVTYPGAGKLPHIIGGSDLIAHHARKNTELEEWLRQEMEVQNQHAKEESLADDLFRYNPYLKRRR
UniProt Q92878: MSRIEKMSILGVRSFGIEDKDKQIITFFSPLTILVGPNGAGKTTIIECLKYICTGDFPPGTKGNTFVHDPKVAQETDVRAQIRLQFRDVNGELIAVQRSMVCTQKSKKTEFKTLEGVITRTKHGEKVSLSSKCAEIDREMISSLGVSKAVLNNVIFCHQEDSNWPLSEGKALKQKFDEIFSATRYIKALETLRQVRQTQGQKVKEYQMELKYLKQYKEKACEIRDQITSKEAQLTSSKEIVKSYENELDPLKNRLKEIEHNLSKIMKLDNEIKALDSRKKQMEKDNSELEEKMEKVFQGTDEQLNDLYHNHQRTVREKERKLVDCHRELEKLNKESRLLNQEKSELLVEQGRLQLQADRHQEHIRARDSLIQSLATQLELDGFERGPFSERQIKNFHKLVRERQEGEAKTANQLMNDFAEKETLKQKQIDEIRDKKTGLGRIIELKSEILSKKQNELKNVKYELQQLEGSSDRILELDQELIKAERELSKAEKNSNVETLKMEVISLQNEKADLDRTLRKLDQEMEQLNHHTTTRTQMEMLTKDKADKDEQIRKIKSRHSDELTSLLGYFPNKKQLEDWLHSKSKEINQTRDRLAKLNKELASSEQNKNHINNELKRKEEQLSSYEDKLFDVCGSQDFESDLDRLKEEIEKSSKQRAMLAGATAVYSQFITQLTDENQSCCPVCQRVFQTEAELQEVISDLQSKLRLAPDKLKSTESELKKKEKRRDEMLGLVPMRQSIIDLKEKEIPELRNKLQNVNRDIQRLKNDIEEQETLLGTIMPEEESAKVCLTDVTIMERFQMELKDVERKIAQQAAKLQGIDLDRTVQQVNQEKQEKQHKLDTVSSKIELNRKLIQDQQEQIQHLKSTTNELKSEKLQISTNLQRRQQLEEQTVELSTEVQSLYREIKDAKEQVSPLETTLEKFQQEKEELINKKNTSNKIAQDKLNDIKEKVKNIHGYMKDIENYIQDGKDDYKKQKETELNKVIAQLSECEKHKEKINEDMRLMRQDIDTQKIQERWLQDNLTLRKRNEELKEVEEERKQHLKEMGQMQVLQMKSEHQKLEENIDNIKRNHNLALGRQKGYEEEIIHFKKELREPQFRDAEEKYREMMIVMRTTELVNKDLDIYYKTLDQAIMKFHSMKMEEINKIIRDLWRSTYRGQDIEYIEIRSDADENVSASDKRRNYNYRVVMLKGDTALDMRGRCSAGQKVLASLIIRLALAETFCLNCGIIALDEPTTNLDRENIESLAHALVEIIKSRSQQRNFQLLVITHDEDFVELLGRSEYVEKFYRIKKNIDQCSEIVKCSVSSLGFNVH
UniProt Q8N6T7: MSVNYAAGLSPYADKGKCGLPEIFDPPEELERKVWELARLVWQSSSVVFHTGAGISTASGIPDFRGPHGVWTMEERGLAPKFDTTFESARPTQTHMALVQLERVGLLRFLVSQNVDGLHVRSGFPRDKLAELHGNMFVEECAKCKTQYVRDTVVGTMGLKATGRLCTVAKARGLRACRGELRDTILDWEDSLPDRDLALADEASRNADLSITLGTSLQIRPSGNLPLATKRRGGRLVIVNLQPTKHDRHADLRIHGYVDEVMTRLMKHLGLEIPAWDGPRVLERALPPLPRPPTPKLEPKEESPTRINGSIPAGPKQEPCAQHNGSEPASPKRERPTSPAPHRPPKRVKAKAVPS
UniProt Q9NRC8: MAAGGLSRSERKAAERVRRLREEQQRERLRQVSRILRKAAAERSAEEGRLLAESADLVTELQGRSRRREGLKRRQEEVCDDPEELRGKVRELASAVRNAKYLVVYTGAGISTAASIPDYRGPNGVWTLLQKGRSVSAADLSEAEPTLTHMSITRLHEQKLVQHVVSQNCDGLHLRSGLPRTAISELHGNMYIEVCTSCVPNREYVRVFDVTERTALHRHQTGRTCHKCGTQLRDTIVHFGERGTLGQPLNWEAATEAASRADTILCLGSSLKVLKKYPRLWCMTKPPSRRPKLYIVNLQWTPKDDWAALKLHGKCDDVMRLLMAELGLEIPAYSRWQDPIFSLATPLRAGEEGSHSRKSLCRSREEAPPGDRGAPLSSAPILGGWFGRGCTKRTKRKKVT

Assays:
[1] = molecular target: SIRT1-FLAG wild-type (human) (UniProt Q96EB6); experiment: co-IP; SAMHD1-GFP fragments and SIRT1-FLAG co-expressed, irradiated cells (Supplementary Fig. 5c); which protein was precipitated is not given
[2] = molecular target: SAMHD1-GFP wild-type (full-length) (human) (UniProt Q9Y3Z3); experiment: co-IP; 293T cells overexpressing SAMHD1-GFP, with or without 10 Gy IR (harvested after 4 h); lysate in CHAPS buffer IP'ed with anti-GFP antibody on protein A/G agarose overnight at 4 °C; blots for co-precipitated proteins of the lysate
SAMHD1-GFP K354R (human) = SAMHD1-GFP K354R (human) (UniProt Q9Y3Z3); experiment: as above
SAMHD1-GFP K354Q (human) = SAMHD1-GFP K354Q (human) (UniProt Q9Y3Z3); experiment: as above
[3] = molecular target: SIRT1-FLAG wild-type (human) (UniProt Q96EB6); experiment: co-IP; 293T cells overexpressing SIRT1-FLAG, with or without 10 Gy IR (harvested after 4 h); lysate IP'ed (Anti-Flag M2 affinity beads named in the methods); blot for endogenous SAMHD1
[4] = molecular target: endogenous SIRT1 (human (endogenous in 293T)) (UniProt Q96EB6); experiment: co-IP; 293T lysates, with or without IR, IP'ed with anti-SAMHD1 or anti-SIRT1 antibodies; blots with anti-SIRT1 and anti-SAMHD1; both proteins endogenous
[5] = molecular target: SAMHD1-GFP wild-type (full-length) (human) (UniProt Q9Y3Z3); experiment: co-IP; 293T cells overexpressing SAMHD1-GFP, with or without 10 Gy IR (harvested after 4 h); lysate in CHAPS buffer IP'ed with anti-GFP antibody on protein A/G agarose overnight at 4 °C; blots for co-precipitated proteins of the lysate; remark: listed apart in the source

In the case of “SAMHD1-GFP (1–115) (from UniProt Q9Y3Z3 1-115) (domain or fragment)”, the binding [1] is reported as “no binding”.

In the case of “SAMHD1-GFP (115–300) (from UniProt Q9Y3Z3 115-300) (domain or fragment)”, the binding [1] is reported as “no binding”.

“SAMHD1-GFP (300–465) (from UniProt Q9Y3Z3 300-465) (domain or fragment)” was tested, and the binding [1] was “binds”.

With “endogenous NBS1 (from UniProt O60934 1-754)” the binding [2] was “binds”, the binding (SAMHD1-GFP K354R (human)) was “binds” and the binding (SAMHD1-GFP K354Q (human)) was “binds”.

With “endogenous RAD50 (from UniProt Q92878 1-1312)” the binding [2] was “binds”, the binding (SAMHD1-GFP K354R (human)) was “binds” and the binding (SAMHD1-GFP K354Q (human)) was “binds”.

With “endogenous SAMHD1 (from UniProt Q9Y3Z3 1-626)” the binding [3] was “binds” and the binding [4] was “binds”.

For “endogenous SIRT6 (from UniProt Q8N6T7 1-355) (enzyme)”, the binding [2] was “no binding”.

“endogenous SIRT7 (from UniProt Q9NRC8 1-400) (enzyme)” was tested, and the binding [2] was “no binding”.

B1: endogenous SIRT2 (enzyme, UniProt Q8IXJ6 1-389)
chain: MAEPDPSHPLETQAGKVQEAQDSDSDSEGGAAGGEADMDFLRNLFSQTLSLGSQKERLLDELTLEGVARYMQSERCRRVICLVGAGISTSAGIPDFRSPSTGLYDNLEKYHLPYPEAIFEISYFKKHPEPFFALAKELYPGQFKPTICHYFMRLLKDKGLLLRCYTQNIDTLERIAGLEQEDLVEAHGTFYTSHCVSASCRHEYPLSWMKEKIFSEVTPKCEDCQSLVKPDIVFFGESLPARFFSCMQSDFLKVDLLLVMGTSLQVQPFASLISKAPLSTPRLLINKEKAGQSDPFLGMIMGLGGGMDFDSKKAYRDVAWLGECDQGCLALAELLGWKKELEDLVRREHASIDAQSGAGVPNPSTSASPKKSPPPAKDEARTTEREKPQ
In the case of B1, the binding [5] is reported as “no binding”.
